{"source": "patent US11207320B2", "about": "“Compositions and methods for cancer expressing PDE3A or SLFN12” (The Broad Institute, Inc., priority 2015, dated 2021)", "test_system": "766 cancer cell lines", "assay": "Large-scale cell-line viability measurements (766 cancer cell lines, 72 h, AUC)", "format": "cell-based, human", "details": "72 hours", "description": "Cell lines were treated for 72 hours with concentrations ranging from 66.4 μM-2 nM in 2-fold step dilutions.\nTo characterize cellular sensitivity to DNMDP further, 766 genomically characterized cancer cell lines were screened for DMNDP sensitivity at concentrations ranging from 66.4 μM to 2 nM in 2-fold dilution steps for 72 hours. From these cell lines, 22 cell lines were categorized as sensitive with a robust Z-score lower than −4, which represented multiple lineages including multiple melanoma cell lines, amongst others (Table 1).\nThe sensitivity of […] cancer cell lines (CCLs) was measured drawn from 23 different lineages to DNMDP. Each cell line was plated in its preferred media in white opaque 1536-plates at a density of 500 cells/well. After incubating overnight, DNMDP was added by acoustic transfer at 16 concentrations ranging from 66.4 μM-2 nM in 2-fold steps in duplicate (Labcyte Echo 555, Labcyte Inc., Sunnyvale, Calif.). After 72 hours treatment, cellular ATP levels were measured as a surrogate for viability (CELLTITERGLO®, Promega Corporation, Madison, Wis.) according to manufacturer's protocols using a ViewLux Microplate Imager (PerkinElmer, Waltham, Mass.) and normalized to background (media-only) and vehicle (DMSO)-treated control wells.\nConcentration response curves were fit using nonlinear fits to 2- or 3-parameter sigmoid functions through all 16 concentrations with the low-concentration asymptote set to the DMSO-normalized value, and an optimal 8-point dose curve spanning the range of compound-sensitivity was identified. The area under the 8-point dose curve (AUC) was computed by numeric integration as a metric for sensitivity for further analysis. Similar sensitivity measurements have been obtained for a collection of 480 other compounds, enabling analyses that identify cell lines responding uniquely to DNMDP (see Broad Institute Cancer Therapeutics Response Portal, a dataset to identify comprehensively relationships between genetic and lineage features of human cancer cell lines and small-molecule sensitivities for complete list of compounds).", "key": {"[1]": {"details": "NOMO1 (HAEMATOPOIETIC AND LYMPHOID TISSUE)"}, "[2]": {"details": "NUDUL1 (HAEMATOPOIETIC AND LYMPHOID TISSUE)"}, "[3]": {"details": "OCIAML5 (HAEMATOPOIETIC AND LYMPHOID TISSUE)"}, "[4]": {"details": "OCILY3 (HAEMATOPOIETIC AND LYMPHOID TISSUE)"}, "[5]": {"details": "OCILY10 (HAEMATOPOIETIC AND LYMPHOID TISSUE)"}, "[6]": {"details": "P31FUJ (HAEMATOPOIETIC AND LYMPHOID TISSUE)"}, "[7]": {"details": "PEER (HAEMATOPOIETIC AND LYMPHOID TISSUE)"}, "[8]": {"details": "PL21 (HAEMATOPOIETIC AND LYMPHOID TISSUE)"}, "[9]": {"details": "REC1 (HAEMATOPOIETIC AND LYMPHOID TISSUE)"}, "[10]": {"details": "REH (HAEMATOPOIETIC AND LYMPHOID TISSUE)"}, "[11]": {"details": "RS411 (HAEMATOPOIETIC AND LYMPHOID TISSUE)"}}, "note": "The source gives many values for each of these; only a part stands here.", "data": [{"smiles": "CCN(CC)c1ccc(C2=NNC(=O)CC2C)cc1[N+](=O)[O-]", "note": "(stereo not drawn) [DNMDP, 6-(4-(diethylamino)-3-nitrophenyl)-5-methyl-4,5-dihydropyridazin-3(2H)-one]", "values": [{"measurement": "Robust Z-score", "setting": "NCIH1666 (LUNG)", "result": "−3.175"}, {"measurement": "DNMDP AUC", "setting": "NCIH1693 (LUNG)", "result": 6.3603}, {"measurement": "Robust Z-score", "setting": "NCIH1693 (LUNG)", "result": "−0.288"}, {"measurement": "DNMDP AUC", "setting": "NCIH1703 (LUNG)", "result": 6.5035}, {"measurement": "Robust Z-score", "setting": "NCIH1703 (LUNG)", "result": "−0.1377"}, {"measurement": "DNMDP AUC", "setting": "NCIH1734 (LUNG)", "result": 2.2179}, {"measurement": "Robust Z-score", "setting": "NCIH1734 (LUNG)", "result": "−4.636"}, {"measurement": "DNMDP AUC", "setting": "NCIH1869 (LUNG)", "result": 6.4177}, {"measurement": "Robust Z-score", "setting": "NCIH1869 (LUNG)", "result": "−0.2277"}, {"measurement": "DNMDP AUC", "setting": "NCIH1915 (LUNG)", "result": 5.0031}, {"measurement": "Robust Z-score", "setting": "NCIH1915 (LUNG)", "result": "−1.713"}, {"measurement": "DNMDP AUC", "setting": "NCIH2081 (LUNG)", "result": 5.5811}, {"measurement": "Robust Z-score", "setting": "NCIH2081 (LUNG)", "result": "−1.106"}, {"measurement": "DNMDP AUC", "setting": "NCIH2106 (LUNG)", "result": 6.5249}, {"measurement": "Robust Z-score", "setting": "NCIH2106 (LUNG)", "result": "−0.1152"}, {"measurement": "DNMDP AUC", "setting": "NCIH2172 (LUNG)", "result": 5.4245}, {"measurement": "Robust Z-score", "setting": "NCIH2172 (LUNG)", "result": "−1.27"}, {"measurement": "DNMDP AUC", "setting": "NCIH2228 (LUNG)", "result": 6.5304}, {"measurement": "Robust Z-score", "setting": "NCIH2228 (LUNG)", "result": "−0.1094"}, {"measurement": "DNMDP AUC", "setting": "NCIH2286 (LUNG)", "result": 4.7782}, {"measurement": "Robust Z-score", "setting": "NCIH2286 (LUNG)", "result": "−1.949"}, {"measurement": "DNMDP AUC", "setting": "NCIN87 (STOMACH)", "result": 6.24}, {"measurement": "Robust Z-score", "setting": "NCIN87 (STOMACH)", "result": "−0.4142"}, {"measurement": "DNMDP AUC", "setting": "NH6 (AUTONOMIC GANGLIA)", "result": 6.4066}, {"measurement": "Robust Z-score", "setting": "NH6 (AUTONOMIC GANGLIA)", "result": "−0.2394"}, {"measurement": "DNMDP AUC", "setting": "[1]", "result": 6.3925}, {"measurement": "Robust Z-score", "setting": "[1]", "result": "−0.2542"}, {"measurement": "DNMDP AUC", "setting": "[2]", "result": 6.2966}, {"measurement": "Robust Z-score", "setting": "[2]", "result": "−0.3548"}, {"measurement": "DNMDP AUC", "setting": "OAW28 (OVARY)", "result": 6.2381}, {"measurement": "Robust Z-score", "setting": "OAW28 (OVARY)", "result": "−0.4162"}, {"measurement": "DNMDP AUC", "setting": "[3]", "result": 6.3062}, {"measurement": "Robust Z-score", "setting": "[3]", "result": "−0.3448"}, {"measurement": "DNMDP AUC", "setting": "[4]", "result": 6.4442}, {"measurement": "Robust Z-score", "setting": "[4]", "result": "−0.1999"}, {"measurement": "DNMDP AUC", "setting": "[5]", "result": 6.222}, {"measurement": "Robust Z-score", "setting": "[5]", "result": "−0.4331"}, {"measurement": "DNMDP AUC", "setting": "OCUM1 (STOMACH)", "result": 5.2843}, {"measurement": "Robust Z-score", "setting": "OCUM1 (STOMACH)", "result": "−1.417"}, {"measurement": "DNMDP AUC", "setting": "ONS76 (CENTRAL NERVOUS SYSTEM)", "result": 6.4253}, {"measurement": "Robust Z-score", "setting": "ONS76 (CENTRAL NERVOUS SYSTEM)", "result": "−0.2197"}, {"measurement": "DNMDP AUC", "setting": "OSRC2 (KIDNEY)", "result": 4.326}, {"measurement": "Robust Z-score", "setting": "OSRC2 (KIDNEY)", "result": "−2.423"}, {"measurement": "DNMDP AUC", "setting": "OUMS23 (LARGE INTESTINE)", "result": 6.5015}, {"measurement": "Robust Z-score", "setting": "OUMS23 (LARGE INTESTINE)", "result": "−0.1398"}, {"measurement": "DNMDP AUC", "setting": "OVMANA (OVARY)", "result": 6.3268}, {"measurement": "Robust Z-score", "setting": "OVMANA (OVARY)", "result": "−0.3231"}, {"measurement": "DNMDP AUC", "setting": "OVTOKO (OVARY)", "result": 6.4718}, {"measurement": "Robust Z-score", "setting": "OVTOKO (OVARY)", "result": "−0.1709"}, {"measurement": "DNMDP AUC", "setting": "[6]", "result": 5.0106}, {"measurement": "Robust Z-score", "setting": "[6]", "result": "−1.705"}, {"measurement": "DNMDP AUC", "setting": "PANC0327 (PANCREAS)", "result": 6.4856}, {"measurement": "Robust Z-score", "setting": "PANC0327 (PANCREAS)", "result": "−0.1565"}, {"measurement": "DNMDP AUC", "setting": "PANC0504 (PANCREAS)", "result": 6.3894}, {"measurement": "Robust Z-score", "setting": "PANC0504 (PANCREAS)", "result": "−0.2574"}, {"measurement": "DNMDP AUC", "setting": "PATU8988S (PANCREAS)", "result": 6.479}, {"measurement": "Robust Z-score", "setting": "PATU8988S (PANCREAS)", "result": "−0.1634"}, {"measurement": "DNMDP AUC", "setting": "[7]", "result": 5.4754}, {"measurement": "Robust Z-score", "setting": "[7]", "result": "−1.217"}, {"measurement": "DNMDP AUC", "setting": "[8]", "result": 6.4754}, {"measurement": "Robust Z-score", "setting": "[8]", "result": "−0.1672"}, {"measurement": "DNMDP AUC", "setting": "RD (SOFT TISSUE)", "result": 6.4567}, {"measurement": "Robust Z-score", "setting": "RD (SOFT TISSUE)", "result": "−0.1868"}, {"measurement": "DNMDP AUC", "setting": "[9]", "result": 6.5051}, {"measurement": "Robust Z-score", "setting": "[9]", "result": "−0.136"}, {"measurement": "DNMDP AUC", "setting": "[10]", "result": 6.3759}, {"measurement": "Robust Z-score", "setting": "[10]", "result": "−0.2716"}, {"measurement": "DNMDP AUC", "setting": "RERFLCAD2 (LUNG)", "result": 6.2783}, {"measurement": "Robust Z-score", "setting": "RERFLCAD2 (LUNG)", "result": "−0.374"}, {"measurement": "DNMDP AUC", "setting": "RERFLCAI (LUNG)", "result": 6.4571}, {"measurement": "Robust Z-score", "setting": "RERFLCAI (LUNG)", "result": "−0.1864"}, {"measurement": "DNMDP AUC", "setting": "RH18 (SOFT TISSUE)", "result": 5.6283}, {"measurement": "Robust Z-score", "setting": "RH18 (SOFT TISSUE)", "result": "−1.056"}, {"measurement": "DNMDP AUC", "setting": "RH30 (SOFT TISSUE)", "result": 6.3841}, {"measurement": "Robust Z-score", "setting": "RH30 (SOFT TISSUE)", "result": "−0.263"}, {"measurement": "DNMDP AUC", "setting": "RKO (LARGE INTESTINE)", "result": 6.4316}, {"measurement": "Robust Z-score", "setting": "RKO (LARGE INTESTINE)", "result": "−0.2131"}, {"measurement": "DNMDP AUC", "setting": "RMGI (OVARY)", "result": 6.3019}, {"measurement": "Robust Z-score", "setting": "RMGI (OVARY)", "result": "−0.3493"}, {"measurement": "DNMDP AUC", "setting": "RMUGS (OVARY)", "result": 6.52}, {"measurement": "Robust Z-score", "setting": "RMUGS (OVARY)", "result": "−0.1203"}, {"measurement": "DNMDP AUC", "setting": "[11]", "result": 6.2689}, {"measurement": "Robust Z-score", "setting": "[11]", "result": "−0.3839"}, {"measurement": "DNMDP AUC", "setting": "RT4 (URINARY TRACT)", "result": 6.2742}]}]}
